The text below walks through data of the supplement of paper PMC4967469.

Compound in this experiment: COc1ncc(-c2ccc3nccc(-c4ccnnc4)c3c2)cc1NS(=O)(=O)c1ccc(F)cc1F [GSK2126458]
As to the kind of experiment: Viability of human cancer cell lines after 72 h of drug (GDSC screen). The note with it: top dose inferred. As for the experimental part:
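Human cancer cell lines in 384-well plates, medium with 10% serum, drug for 72 h over a 256-fold dose range (nine 2-fold or five 4-fold steps up to the top dose). Adherent lines were fixed and stained with the nucleic acid dye Syto60, suspension lines read with resazurin; signal relative to control wells, capped at 0 and 100%. One two-parameter sigmoid per drug and line, fitted in a mixed model over all curves with the slope shared within a line.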

A lower IC50 marks a more sensitive line; where the fit passes the top or lowest dose, that dose stands as a limit. The AUC spans the tested range (256-fold, ending at the top dose) of the same fit; the more sensitive the line, the further below 1. A top dose marked as inferred was derived from the fitted curves, not read from the paper. Some results are limits rather than exact numbers.

For “COLO-800 (melanoma, adherent, top dose 0.128 µM)”, the AUC was 0.639 and the IC50 (usually the concentration that inhibits the measured activity by half) came out at 19.2 nM.

As for “COLO-824 (breast, adherent, top dose 0.128 µM)”, the AUC was 0.89 and the IC50 is over 128 nM.

With “COLO-829 (melanoma, adherent, top dose 0.128 µM)”, the AUC is 0.69 and the IC50 was 35.4 nM.

Regarding “COR-L23 (large cell lung carcinoma, adherent, top dose 0.128 µM)”, the AUC turned out to be 0.548 and the IC50 was 10.7 nM.

As for “COR-L88 (small cell lung carcinoma, adherent, top dose 0.128 µM)”, the AUC was determined as 0.9 and the IC50 was over 128 nM.

Consider “COR-L95 (small cell lung carcinoma, adherent, top dose 0.128 µM)”, for which the AUC came to 0.843 and the IC50 is 112 nM.

For the cell line “COR-L105 (lung adenocarcinoma, adherent, top dose 0.128 µM)”, the AUC worked out at 0.573 and the IC50 is 13.2 nM.

Turning to “COR-L279 (small cell lung carcinoma, suspension, top dose 0.128 µM)”, the AUC was found to be 0.489 and the IC50 was determined as 7.51 nM.

Take “COR-L303 (small cell lung carcinoma, suspension, top dose 0.128 µM)”: the AUC was determined as 0.552 and the IC50 was 11 nM.

On to “COR-L311 (small cell lung carcinoma, suspension, top dose 0.128 µM)”, for which the AUC stood at 0.421 and the IC50 was 4.78 nM.

Regarding “COR-L321 (lung, suspension, top dose 0.128 µM)”, the AUC was 0.774 and the IC50 was found to be 50.1 nM.

Turning to “CP50-MEL-B (melanoma, adherent, top dose 0.128 µM)”, the AUC was 0.854 and the IC50 worked out at 99.5 nM.

“CP66-MEL (melanoma, adherent, top dose 0.128 µM)”: the AUC is 0.898 and the half-inhibitory concentration (IC50) is over 128 nM.

As to “CPC-N (small cell lung carcinoma, suspension, top dose 0.128 µM)”, the AUC worked out at 0.765 and the IC50 came out at 51.2 nM.

With CS1 (bone, adherent, top dose 0.128 µM), the AUC was found to be 0.709 and the half-maximal inhibitory concentration (IC50) came to 33.6 nM.

As to “CTB-1 (B-cell lymphoma, suspension, top dose 0.128 µM)”, the AUC worked out at 0.614 and the IC50 is 18.4 nM.

As for “CTV-1 (acute myeloid leukaemia, suspension, top dose 1.024 µM)”, the AUC is 0.614 and the IC50 is 123 nM.

Consider “CW-2 (large intestine, adherent, top dose 1.024 µM)”, for which the AUC was 0.894 and the IC50 was over 1020 nM.

As for “Ca9-22 (head and neck, adherent, top dose 0.128 µM)”, the AUC was 0.774 and the IC50 was determined as 46.5 nM.

Take “Ca-Ski (cervix, adherent, top dose 0.128 µM)”: the AUC is 0.398 and the IC50 was 4.07 nM.

As for “CaR-1 (large intestine, adherent, top dose 0.128 µM)”, the AUC came out at 0.837 and the IC50 is over 128 nM.

As to “Calu-3 (lung adenocarcinoma, adherent, top dose 0.128 µM)”, the AUC stood at 0.465 and the IC50 was determined as 6.25 nM.

“Calu-6 (lung adenocarcinoma, adherent, top dose 1.024 µM)”: the AUC is 0.719 and the IC50 turned out to be 296 nM.

Take “Caov-3 (ovary, adherent, top dose 0.128 µM)”: the AUC was found to be 0.828 and the IC50 was found to be 66.6 nM.

On to “Caov-4 (ovary, adherent, top dose 0.128 µM)”, for which the AUC worked out at 0.901 and the IC50 is over 128 nM.

On to “Capan-2 (pancreas, adherent, top dose 0.128 µM)”, for which the AUC was determined as 0.865 and the IC50 is over 128 nM.

For the cell line “ChaGo-K-1 (non-small cell lung carcinoma, adherent, top dose 0.128 µM)”, the AUC is 0.931 and the IC50 was over 128 nM.

Consider “D-247MG (glioma, adherent, top dose 0.128 µM)”, for which the AUC was found to be 0.118 and the half-inhibitory concentration (IC50) was under 0.5 nM.

Consider “D-263MG (glioma, adherent, top dose 0.128 µM)”, for which the AUC came to 0.977 and the half-inhibitory concentration (IC50) is over 128 nM.

On to “D-283MED (medulloblastoma, adherent, top dose 0.128 µM)”, for which the AUC came to 0.991 and the IC50 was over 128 nM.

“D-336MG (glioma, adherent, top dose 0.128 µM)”: the AUC was found to be 0.53 and the IC50 worked out at 9.92 nM.

Regarding “D-392MG (glioma, adherent, top dose 0.128 µM)”, the AUC stood at 0.811 and the IC50 worked out at 101 nM.

As for “D-423MG (glioma, adherent, top dose 0.128 µM)”, the AUC amounted to 0.465 and the IC50 came out at 6.27 nM.

Consider “D-502MG (glioma, adherent, top dose 0.128 µM)”, for which the AUC is 0.638 and the IC50 was determined as 23.8 nM.

For the cell line “D-542MG (glioma, adherent, top dose 0.128 µM)”, the AUC turned out to be 0.883 and the IC50 is over 128 nM.

Consider “D-566MG (glioma, adherent, top dose 0.128 µM)”, for which the AUC is 0.51 and the IC50 was found to be 8.5 nM.

For the cell line “DAN-G (pancreas, adherent, top dose 0.128 µM)”, the AUC was 0.671 and the IC50 was determined as 22.4 nM.

For the cell line “DB (B-cell lymphoma, suspension, top dose 0.128 µM)”, the AUC was determined as 0.865 and the IC50 was over 128 nM.

Take “DBTRG-05MG (glioma, adherent, top dose 0.128 µM)”: the AUC was found to be 0.755 and the IC50 worked out at 50.4 nM.

In the case of “DEL (lymphoid neoplasm, suspension, top dose 0.128 µM)”, the AUC turned out to be 0.882 and the IC50 amounted to 86.7 nM.

For “DG-75 (Burkitt lymphoma, suspension, top dose 0.128 µM)”, the AUC turned out to be 0.904 and the IC50 was over 128 nM.

As to “DJM-1 (skin, adherent, top dose 0.128 µM)”, the AUC was 0.871 and the IC50 amounted to 118 nM.

Turning to “DK-MG (glioma, adherent, top dose 0.128 µM)”, the AUC came to 0.739 and the IC50 is 55.5 nM.

With “DMS-53 (small cell lung carcinoma, adherent, top dose 0.128 µM)”, the AUC came to 0.974 and the IC50 was over 128 nM.

Take “DMS-79 (small cell lung carcinoma, suspension, top dose 0.128 µM)”: the AUC was 0.843 and the IC50 was found to be 113 nM.

As to “DMS-114 (small cell lung carcinoma, adherent, top dose 0.128 µM)”, the AUC was determined as 0.531 and the IC50 was 9.87 nM.

On to “DMS-273 (small cell lung carcinoma, adherent, top dose 0.128 µM)”, for which the AUC came out at 0.472 and the IC50 was found to be 6.68 nM.
